Test [1] relates to Pioneer inbred PHH5E seedlings / leaf segments. Kind of test: Seedling pre-treatment with ancymidol, Agrobacterium-mediated random leaf transformation (Table 21). Further details: key to T-DNA Delivery: 0 = None; 4 = almost all embryos expressing. Format: in vivo, maize.
For test [2] the test system is unchanged. Kind of test: Auxin (2,4-D) seedling pre-treatment, leaf transformation (Table 33). Format: in vivo, maize. The following applies: for No. T0 Plants / T-DNA Delivery: 24 hours, 60 seedlings; for Txn % (Transformation Frequency): (No. T0 plants/No. Seedlings) × 100; for No. SC Clean: single-copy T-DNA integration with no extraneous Agrobacterium sequences.
[3] abbreviates: 2 mg/l ancymidol in germination medium, 14 days, single experiments (Exp. 1-3), 28-33 seedlings, PHP97334.
Setting [4] is: 2 mg/l ancymidol, Totals of Exp. 1-3, 93 seedlings.
Setting [5] is: 4 mg/l ancymidol in germination medium, 14 days, single experiments (Exp. 1-3), 32-33 seedlings, PHP97334.
[6] abbreviates: 4 mg/l ancymidol, Totals of Exp. 1-3, 97 seedlings.
Where [7] appears, read: seedlings on 10 mg/l 2,4-D for 24 hours.

“And” between values parts separate entries of the source, which are not always exact repeats. Identical values can stand only once.

As to `COc1ccc(C(O)(c2cncnc2)C2CC2)cc1` (stereo not drawn) [Ancymidol, ancymidol], in test [1] (setting [3]), the “No. T0 Plants” value is 66 and 118 and 97; the SC % is 41% and 43% and 69%; the “T-DNA Delivery” value turned out to be 4; the “Txn % (Transformation Frequency)” value is 236% and 358% and 303%. In test [1] (setting [4]), the “# SC T0s (single copy of the integrated T-DNA)” value (from here on “# SC T0s”) was found to be 145, the “No. T0 Plants” value is given as 281, the SC % was found to be 52% and the “T-DNA Delivery” value was 4. Moreover, the “Txn % (Transformation Frequency)” value in test [1] (setting [4]) was found to be 302%. Further, the “overall rates of early somatic embryo formation relative to the control treatment” value in test [1] (2 mg/l and 4 mg/l ancymidol) was “higher”. In test [1] (setting [5]), the “# SC T0s” value is 51 and 45; the “No. T0 Plants” value was 75 and 83 and 81; the SC % was 68% and 54% and 63%; the “T-DNA Delivery” value is recorded as 4. The “Txn % (Transformation Frequency)” value in test [1] (setting [5]) is 234% and 252% and 253%. For the same molecule, in test [1] (setting [6]), the “# SC T0s” value was determined as 147, the “No. T0 Plants” value was determined as 239, the SC % is on record as 62% and the “T-DNA Delivery” value came out at 4. Further, the “Txn % (Transformation Frequency)” value in test [1] (setting [6]) was 246%. Moreover, the “average T0 Txn % higher than the control treatment” value in test [1] (seedlings grown on 2 mg/l ancymidol) was 3 fold. For the same molecule, the “average T0 Txn % higher than the control treatment” value in test [1] (seedlings grown on 4 mg/l ancymidol) was found to be 2.5 fold.

For `O=C(O)COc1ccc(Cl)cc1Cl` [2,4-D, 2,4-dichlorophenoxyacetic acid], in test [2] (2,4-D 3 mg/l), the “SC % (Single-copy Frequency)” value was found to be 30%, the “No. T0 Plants” value is given as 45, the “T-DNA Delivery” value is 3 (75%) and the “Txn % (Transformation Frequency)” value was found to be 75%. Besides, the “No. SC Clean” value in test [2] (2,4-D 3 mg/l) stood at 18. Besides, in test [2] (2,4-D 10 mg/l), the “SC % (Single-copy Frequency)” value was 67%, the “No. T0 Plants” value was 72, the “T-DNA Delivery” value is given as 4 (90-100% of the leaf segments/pieces within a treatment showed ZS-GREEN expression) and the “Txn % (Transformation Frequency)” value was 120%. The “No. SC Clean” value in test [2] (2,4-D 10 mg/l) was determined as 40. For the same molecule, in test [2] (2,4-D 30 mg/l), the “SC % (Single-copy Frequency)” value amounted to 32%, the “No. T0 Plants” value is reported as 28, the “T-DNA Delivery” value is 4 (90-100% of the leaf segments/pieces within a treatment showed ZS-GREEN expression) and the “Txn % (Transformation Frequency)” value came to 47%. Further, the “No. SC Clean” value in test [2] (2,4-D 30 mg/l) worked out at 19. Moreover, in test [2] (setting [7]), the “frequency of single-copy T-DNA integrations compared to the control treatment” value is reported as “increased” and the “transformation frequency (Txn %) compared to the control treatment” value was “increased”.

The values above are taken from patent US20250311689A1, “SEEDLING GERMINATION AND GROWTH CONDITIONS” (PIONEER HI-BRED INTERNATIONAL, INC., priority 2022, published 2025).
